{
  "source": "PubChem BioAssay AID1345083",
  "about": "(National Center for Advancing Translational Sciences (NCATS), 2018)",
  "note": "About 6,200 (6.6%) of roughly 94,000 compounds were called active. This list was built around the results that the source calls inconclusive (neither active nor inactive); the mix of calls is not that of the screen. Calls come from the whole dose curve; as a rule, active = well fitted inhibition curve with a large enough effect; inconclusive = small, poorly fitted or top-dose-only effect; inactive = flat fitted curve, though single readings scatter. Potencies of inconclusive entries are doubtful fits and often do not repeat. % is set by controls: 0 for no effect and ±100 for the full control effect; potency is the fitted concentration of half-maximal effect; tags give direction and shape of the fitted curve.",
  "data": [
    {"test": "Cytotoxic Profiling in HEK 293 Cell Line of Diverse Libraries Using Quantitative High-Throughput Screening; note: nearly all actives have a fitted effect of over 60% in size", "conditions": "HEK 293 viability, ATP luminescence (CellTiter-Glo), 48-72 h; activity change, negative = cytotoxicity: at 115 µM (top of the series) unless noted; series mostly up to 115 µM", "method_in_brief": "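HEK 293 cells seeded at 250 cells/well were exposed to compound for 48 or 72 hr at 37 degree Celsius. Viability taken as ATP content by CellTiter-Glo luminescence.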", "values": [
      {"compound": "COCCNC(=O)C[C@@H]1O[C@H](Cn2cc(CN(C)Cc3ccccc3)nn2)[C@@H](O)[C@H]1O", "activity change, negative = cytotoxicity": "inactive: -19.8% [at 172 µM]"},
      {"compound": "CNC(=O)CN(Cc1cccs1)[C@@H]1C[C@@H]2CO[C@H](C(C)C)C[C@@H]2C1", "Potency": "inconclusive: 44.7 µM [inhibitor, partial curve]"},
      {"compound": "Cc1cc2c(-c3ccc(S(C)(=O)=O)cc3)nc(-c3c(C)noc3C)cc2[nH]1", "Potency": "inconclusive: 22.4 µM [inhibitor, full curve, poor fit]"},
      {"compound": "CS(=O)(=O)N1C[C@H]2CCN(Cc3ccccc3C(F)(F)F)C[C@H]21", "Potency": "inconclusive: 50.1 µM [inhibitor, partial curve, poor fit]"},
      {"compound": "O=C(c1cccc(F)c1)N1CCC(c2n[nH]c(=O)n2-c2ccccc2)CC1", "activity change, negative = cytotoxicity": "inactive: 10.1%"},
      {"compound": "CC(C)N1CC(C(=O)NCc2ccc(Cl)cc2)NC1=O", "note": "(configuration not stated)", "Potency": "inconclusive: 126 µM [inhibitor, single point]"},
      {"compound": "Cc1cc(C(F)(F)F)nc(CCNC(=O)C2NCCc3[nH]cnc32)n1", "note": "(configuration not stated)", "outcome": "inactive"},
      {"compound": "O=C(c1cc2ccccc2oc1=O)N1CCC2(CCCN(Cc3ccccc3F)C2)C1", "note": "(configuration not stated)", "Potency": "inconclusive: 100 µM [inhibitor, partial curve, poor fit]"},
      {"compound": "CNC(=O)CN1CN(c2ccccc2)C2(CCN(C(=O)NC34CC5CC(CC(C5)C3)C4)CC2)C1=O", "Potency": "inconclusive: 89.1 µM [inhibitor, single point]"},
      {"compound": "COc1ccccc1Nc1ccnc(N2CCN([S+](=O)([O-])c3ccc(C)cc3)CC2)n1", "Potency": "inconclusive: 22.4 µM [inhibitor, full curve]"},
      {"compound": "COc1ccc(NC(=O)Cn2c(=O)n(-c3cccc(C)c3)c(=O)c3c2cc(C)n3C)c(OC)c1", "activity change, negative = cytotoxicity": "inactive: -27.1%"},
      {"compound": "Cn1cc(CN2C[C@H](C(=O)NCc3cccnc3)C[C@H]2c2cccc(C(F)(F)F)c2)cn1", "Potency": "inconclusive: 89.1 µM [inhibitor, single point]"},
      {"compound": "CCOCCCNc1ncnc2c1CN(C1CCNCC1)C(=O)CN2C", "outcome": "inactive"},
      {"compound": "Cc1ccc([S+](=O)([O-])N2CCC(N3CC4CCCN4C3=O)CC2)cc1", "note": "(configuration not stated)", "activity change, negative = cytotoxicity": "inactive: -17%"},
      {"compound": "O=C(c1ccno1)N1CCN2C(=O)N(Cc3ccc(F)cc3)C[C@H]2C1", "activity change, negative = cytotoxicity": "inactive: -18.1% [at 172 µM]"},
      {"compound": "CC(C)[C@]1(O)CN(C(=O)Cn2[nH]c3ccccc3c2=O)C[C@H]1C", "activity change, negative = cytotoxicity": "inactive: -6.22%"},
      {"compound": "Cc1ccccc1-c1nccn2c(C3CN(Cc4ccc(O)cc4)C3)ncc12", "Potency": "inconclusive: 112 µM [inhibitor, partial curve, poor fit]"},
      {"compound": "O=C(N[C@H]1CCN2C(=O)c3cc(-c4ccc(Cl)cc4)ccc3NC(=O)[C@H]12)c1cnccn1", "Potency": "active: 79.4 µM"},
      {"compound": "O=C(N[C@H]1CO[C@H]2[C@@H]1OC[C@@H]2Nc1nccc(-c2ccc(-c3ccccc3)cc2)n1)C1CC1", "Potency": "inconclusive: 44.7 µM [inhibitor, partial curve, poor fit]"},
      {"compound": "COc1ccc(Cn2c(=O)c(C(=O)N3CCN(c4ncccn4)CC3)nc3cccnc32)cc1", "Potency": "inconclusive: 89.1 µM [inhibitor, single point]"},
      {"compound": "Cn1ccc2c(C(=O)NCc3cnccn3)nc(-c3cccc(N4CCOCC4)c3)cc21", "activity change, negative = cytotoxicity": "inactive: -20.9% [at 172 µM]"},
      {"compound": "Cc1cnc(C(=O)N2CCC(c3noc(-c4ccncc4)n3)C2)cn1", "note": "(configuration not stated)", "activity change, negative = cytotoxicity": "inactive: -7.72%"},
      {"compound": "COC[C@H]1CCCN1Cc1nc(C2(O)CCN(Cc3ccc(F)cc3)CC2)cs1", "Potency": "inconclusive: 100 µM [inhibitor, partial curve, poor fit]"},
      {"compound": "Cc1nc2cccnc2n1CC1CCCN(S(=O)(=O)c2cc(F)cc(F)c2)C1", "note": "(configuration not stated)", "Potency": "inconclusive: 89.1 µM [inhibitor, single point]"},
      {"compound": "O=C(C[C@@H]1CCNC[C@@H]1Cc1cc(-c2ccc(F)cc2)on1)NCc1ccc(F)cc1", "Potency": "active: 79.4 µM"},
      {"compound": "O=C(C1CCCCC1)N1CCC2(CC1)CC(N(Cc1ccc(F)cc1)C1CC1)CCO2", "note": "(configuration not stated)", "Potency": "active: 44.7 µM"},
      {"compound": "COCCNC(=O)C1CCN(Cc2ccccc2-c2cccnc2)CC1", "activity change, negative = cytotoxicity": "inactive: -17.4% [at 172 µM]"},
      {"compound": "Cc1ccc(CN2CC[C@H](c3nnc(Cc4ccccc4)o3)C2)cc1", "Potency": "inconclusive: 63.1 µM [inhibitor, partial curve, poor fit]"},
      {"compound": "Cc1sc2ccn(CC(C)C)c(=O)c2c1C(=O)N1CCC(C)CC1", "Potency": "active: 44.7 µM"},
      {"compound": "CCC1(N2CCN(C(=O)c3ccc(Cl)cc3OC)CC2)CCN(C(=O)NC)C1", "note": "(configuration not stated)", "activity change, negative = cytotoxicity": "inactive: -16.1%"},
      {"compound": "COc1cccc(C(=O)N2CCC(C(=O)N3CCC(c4ccccc4)CC3)CC2)c1", "Potency": "inconclusive: 50.1 µM [inhibitor, partial curve, poor fit]"},
      {"compound": "O=C(Cc1cccn1-c1ccc(Cl)cc1)NC1CCCC1", "Potency": "inconclusive: 89.1 µM [inhibitor, single point]"},
      {"compound": "O=C1CCCCC(C(=O)N2CCc3ccccc3C2)N1", "note": "(configuration not stated)", "Potency": "inconclusive: 100 µM [inhibitor, single point]"},
      {"compound": "CC1=C[C@@H](CNC2CCN(C)CC2)[C@H](C(C)C)C[C@H]1Cc1nc2ccc(F)cc2[nH]1", "Potency": "active: 70.8 µM"},
      {"compound": "Cc1ccccc1NC(=O)N1CCC(N(CCC(C)C)C2CCOCC2)CC1", "activity change, negative = cytotoxicity": "inactive: -1.34%"},
      {"compound": "CCCC(=O)N1CC2CC(C1)[C@H]1CCCC(=O)N1C2", "note": "(some centres not stated)", "activity change, negative = cytotoxicity": "inactive: 4.9%"},
      {"compound": "Cc1noc(C)c1CN1CCc2nc(C(=O)Nc3ccccc3)oc2CC1", "Potency": "inconclusive: 50.1 µM [inhibitor, partial curve, poor fit]"},
      {"compound": "NCc1cccc(-c2cccc(C(F)(F)F)c2)c1", "Potency": "inconclusive: 112 µM [inhibitor, partial curve, poor fit]"},
      {"compound": "O=C1c2c(nc(CNCc3cccc(Cl)c3)n2Cc2ccccc2)NCCN1CCOc1ccccc1", "Potency": "inconclusive: 50.1 µM [inhibitor, partial curve, poor fit]"},
      {"compound": "CN1CCN(C(=O)c2nc3sccn3c2-c2ccccc2)CC1", "outcome": "inactive [at 172 µM]"},
      {"compound": "O=C(CNC(=O)c1ccc(-c2cccc(C(F)(F)F)c2)cc1)NCc1ccc(C(F)(F)F)cc1", "Potency": "inconclusive: 25.1 µM [inhibitor, partial curve]"},
      {"compound": "CCOc1cc(C(=O)N2CCCN(c3cc(-c4ccccc4)[nH]n3)CC2)cc(OCC)c1OCC", "Potency": "inconclusive: 89.1 µM [inhibitor, single point]"},
      {"compound": "O=C(NCc1ccc(Cl)cc1)[C@@H]1Cc2nc[nH]c2CN1C(=O)NC1CCCCC1", "Potency": "inconclusive: 126 µM [inhibitor, single point]"},
      {"compound": "COCCCn1c(=O)c(C(=O)NCc2ccc(F)cc2)nc2cccnc21", "activity change, negative = cytotoxicity": "inactive: 4.45%"},
      {"compound": "O=C(NC[C@H]1Cn2c(-c3ccc(Cl)cc3)cnc2CO1)c1cccnc1", "Potency": "active: 22.4 µM"},
      {"compound": "O=C(Cn1cnnn1)N1CCC2(CCCNC2=O)C1", "note": "(configuration not stated)", "Potency": "inconclusive: 25.1 µM [inhibitor, full curve]"},
      {"compound": "C=CCN1CCN(C(=O)CCC[C@@H]2[C@H]3CCCN4CCC[C@@H](CN2Cc2ccccc2)[C@@H]34)CC1", "Potency": "inconclusive: 50.1 µM [inhibitor, partial curve, poor fit]"},
      {"compound": "O=C(Cc1cccc(F)c1)N1CCOc2ccc(CN3CCc4ccccc4C3)cc2C1", "Potency": "inconclusive: 44.7 µM [inhibitor, partial curve, poor fit]"},
      {"compound": "CN1CCOc2nc(-c3ccc(Oc4ccccc4)cc3)ncc2C1=O", "Potency": "inconclusive: 63.1 µM [inhibitor, partial curve, poor fit]"},
      {"compound": "CCCNC(=O)CCc1ccc2c(c1)CN(C(=O)NCC)CCO2", "activity change, negative = cytotoxicity": "inactive: 1.08%"},
      {"compound": "Nc1cc(C(=O)N2CCc3onc(-c4ccc(-c5ccccc5)cc4)c3C2)[nH]n1", "Potency": "active: 17.8 µM"},
      {"compound": "O=C(Cc1ccc(F)cc1)N1CCC2(CC1)NC(=O)N(c1ccc(F)cc1)N2", "Potency": "inconclusive: 31.6 µM [inhibitor, full curve]"},
      {"compound": "CN1CCN(CCCNC(=O)CCC[C@@H]2[C@H]3CCCN4CCC[C@@H](CN2Cc2ccccc2)[C@@H]34)CC1", "activity change, negative = cytotoxicity": "inactive: -10.8%"},
      {"compound": "COc1cccc(F)c1-c1ccc(COc2ccc3c(cnn3CCC(=O)O)c2)cc1", "Potency": "inconclusive: 100 µM [inhibitor, partial curve, poor fit]"},
      {"compound": "COc1ccc(CN2CC3(CCN(S(=O)(=O)c4ccccc4Cl)CC3)C2=O)cc1", "Potency": "inconclusive: 44.7 µM [inhibitor, partial curve, poor fit]"},
      {"compound": "COc1cccc([S+](=O)([O-])NC[C@@H]2CC[C@H]3C[C@@H]2C3(C)C)c1", "Potency": "active: 100 µM"},
      {"compound": "O=C(Cn1nc2c(cc1=O)CCCC2)NCc1nnc2ccccn12", "Potency": "inconclusive: 89.1 µM [inhibitor, single point]"},
      {"compound": "COc1ccc(NC(=O)Cn2c(C)cc3nc4n(c(=O)c32)CCCCC4)cc1Cl", "Potency": "inconclusive: 89.1 µM [inhibitor, single point]"},
      {"compound": "Cc1cn2nc(C(=O)NC3CCCCCC3)cc2c(N2CCCC2)n1", "activity change, negative = cytotoxicity": "inactive: -0.707%"},
      {"compound": "CNC(=O)CCn1ncc2cc(OCc3ccccc3-c3cccc(OC)c3)ccc21", "Potency": "active: 79.4 µM"},
      {"compound": "COC1CN(c2cccc(F)c2)C12CCN(S(=O)(=O)c1cccc(F)c1)CC2", "note": "(configuration not stated)", "Potency": "active: 28.2 µM"},
      {"compound": "O=C(c1cccc(N2CCNC2=O)c1)N1CC(=O)N(C2CCCCC2)CC(OCc2ccccc2)C1", "note": "(configuration not stated)", "activity change, negative = cytotoxicity": "inactive: 21.7%"},
      {"compound": "O=C(NCc1ccccn1)c1ccc2nnc(C3CC3)n2c1", "activity change, negative = cytotoxicity": "inactive: 3.94% [at 172 µM]"},
      {"compound": "Cc1ccc(C(=O)N2CCCC(c3nc(CCOCC4CC4)no3)C2)s1", "note": "(configuration not stated)", "Potency": "inconclusive: 31.6 µM [inhibitor, full curve, poor fit]"},
      {"compound": "O=C(NCCOc1ccccc1)c1cnc2c(c1)N(C(=O)Cc1ccc(O)cc1)CCC2", "Potency": "inconclusive: 70.8 µM [inhibitor, partial curve]"},
      {"compound": "Cc1ccc2nc3n(c2c1)[C@@H](CNCc1ccc(C#N)cc1)COC3", "Potency": "inconclusive: 79.4 µM [inhibitor, partial curve]"},
      {"compound": "Cc1nn(-c2ccccc2)c2c1C(C(C)C)N(C1CCCN(C(=O)Nc3ccc(Cl)cc3)C1)C2=O", "note": "(configuration not stated)", "Potency": "inconclusive: 25.1 µM [inhibitor, full curve, poor fit]"}
    ]}
  ]
}
